The values below come from US20230128188A1 (INHIBRX, published 2023).

Substitutions are numbered along the chain they refer to.

For assay [1], the target named is T1, OX40 on Jurkat/OX40 reporter cells (Promega) (UniProt P43489 29-277).
T1 sequence (looked up): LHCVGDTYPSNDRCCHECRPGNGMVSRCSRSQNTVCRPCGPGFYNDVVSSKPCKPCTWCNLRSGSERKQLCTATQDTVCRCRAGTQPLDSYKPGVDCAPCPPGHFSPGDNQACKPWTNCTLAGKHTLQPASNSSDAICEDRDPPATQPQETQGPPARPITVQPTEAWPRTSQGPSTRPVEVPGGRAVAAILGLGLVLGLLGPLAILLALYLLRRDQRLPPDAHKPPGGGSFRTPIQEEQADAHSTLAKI
The experiment in a line: cell-based or functional assay.

For assay [2], the target named is T2, human OX40 (human, UniProt P43489 29-277).
T2 construct: also called TNFRSF4; CD134
T2 sequence: T1 sequence (looked up)
Briefly: flow cytometry titration on transiently transfected HEK293 freestyle cells expressing full length human OX40 (sheet title: OX40+ 293). As to the method:
(§1) Hexavalent anti-OX40 sdAbs were made by joining three VHH domains to an Fc, which polypeptide forms a hexavalent dimer. Nonspecific binding of hexavalent 3×1D10v1-Fc (SEQ ID NO: 8; also referred to as Hex-1D10v1) and hexavalent 3×1D10v6-Fc (SEQ ID NO: 14; also referred to as Hex-1D10v6) was determined as follows. 3×1D10v1-Fc and 3×1D10v6-Fc were incubated for 48 hours at room temperature in a buffer of 20 mM His, 150 mM NaCl, 0.02% TWEEN-20, pH 9, with untransfected HEK293 freestyle cells or with transiently transfected HEK293 freestyle cells expressing the full length OX40. A fluorescent anti-Fc specific secondary antibody was used to detect bound 3×1D10v1-Fc and 3×1D10v6-Fc, and measured by flow cytometry using an Intellicyte iQue analyzer. Mean fluorescence intensity was plotted for each concentration of antibody.

Assay [3] concerns the target T2, human OX40. Briefly: flow cytometry on transiently transfected HEK293 freestyle cells expressing full length OX40; apparent KD. As to the method: as §1
The target of assay [4] is T2, human OX40. The experiment in a line: cell-based or functional assay.
Assay [5] addresses T3, cynomolgus monkey OX40 (cynomolgus monkey, UniProt P43489 29-277 (human entry)).
T3 construct: Expressed on stably transfected CHO cells; also called cyno OX40
T3 chain: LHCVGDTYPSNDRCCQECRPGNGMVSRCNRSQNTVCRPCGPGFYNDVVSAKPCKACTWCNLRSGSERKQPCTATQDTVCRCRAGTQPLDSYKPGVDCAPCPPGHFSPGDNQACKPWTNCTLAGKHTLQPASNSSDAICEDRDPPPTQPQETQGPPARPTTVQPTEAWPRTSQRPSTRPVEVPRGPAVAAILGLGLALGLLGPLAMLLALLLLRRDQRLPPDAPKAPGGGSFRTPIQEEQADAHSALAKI
The experiment in a line: flow cytometry titration on cells expressing full length cynomolgus monkey OX40 (legend: CHO cells; sheet title: cyOX40 transfected 293s). The method, then:
(§2) Binding of the sdAbs to human and cynomolgus monkey OX40 was determined as follows. Stably transfected CHO cells that express full length human OX40 or cynomolgus monkey OX40 were plated at 50,000 cells/well. Antibodies were titrated serially diluted 1:3 starting at 400 nM, and detected with anti-human Fc 488 secondary antibody. Flow cytometric analysis was performed on an Intellicyte iQue analyzer and fluorescence was plotted as mean fluorescence intensity.

The target in assay [6] is T2, human OX40. The experiment in a line: flow cytometry on CHO cells stably expressing full length human OX40. As to the method:
as §2

The target of assay [7] is T3, cynomolgus monkey OX40. Briefly: flow cytometry on CHO cells stably expressing cynomolgus monkey OX40. The method, then: as §2
For assay [8], the target named is T2, human OX40. Briefly: flow cytometry titration on cells expressing full length human OX40 (legend: CHO cells; sheet title: huOX40 transfected 293s). The method, then:
as §2

B1: hexavalent 3×1D10v1-Fc (Fc fusion)
chain: EVQLLESGGGEVQPGGSLRLSCAASGFTFSDAFMYWVRQAPGKGLEWVSSISNRGLKTAYAESVKGRFTISRDNAKNTLYLQMSSLRAEDTAVYYCSRDVDGDFRGQGTLVTVKPGGSGGSEVQLLESGGGEVQPGGSLRLSCAASGFTFSDAFMYWVRQAPGKGLEWVSSISNRGLKTAYAESVKGRFTISRDNAKNTLYLQMSSLRAEDTAVYYCSRDVDGDFRGQGTLVTVKPGGSGGSEVQLLESGGGEVQPGGSLRLSCAASGFTFSDAFMYWVRQAPGKGLEWVSSISNRGLKTAYAESVKGRFTISRDNAKNTLYLQMSSLRAEDTAVYYCSRDVDGDFRGQGTLVTVKPGGGG[human IgG1 Fc cut from this listing]
notes: also called Hex-1D10v1
Turning to B1, in assay [1], the “EC50 (read off the curve), NFkB-luciferase reporter in Jurkat/OX40 cells” value was around 50 pM and the “Kd (concentration at 50% response), NFkB-luciferase reporter in Jurkat/OX40 cells” value was 46.4 pM. For the same molecule, the “EC50 (read off the curve)” value with human OX40 [2] is around 900 pM. The Kd with human OX40 [3] was determined as 820 pM.

B2: hexavalent 3×1D10v6-Fc (Fc fusion)
chain: B1 chain with G44E, L45R, G102A, G165E, L166R, G223A, G240S, G286E, L287R, G344A
notes: Hex-1D10v6); also called Hex-1D10v6
B2: in assay [1], the “EC50 (read off the curve), NFkB-luciferase reporter in Jurkat/OX40 cells” value is around 50 pM and the “Kd (concentration at 50% response), NFkB-luciferase reporter in Jurkat/OX40 cells” value is 44 pM. In addition, the “EC50 (read off the curve)” value with human OX40 [2] is around 900 pM. For the same molecule, the Kd with human OX40 [3] stood at 900 pM. For the same molecule, in the assay with human OX40 [4], the “EC50 [nM], CD4+ CD25 MFI, donor L556” value was determined as 0.026 nM; the “EC50 [nM], CD4+ CD25 MFI, donor Leuko 9” value was determined as 0.04 nM; the “EC50 [nM], CD4+ CD25 MFI, donor Leuko 20” value was determined as 0.008 nM; the “EC50 [nM], CD4+ CD25 MFI, donor Leuko 22” value was determined as 0.026 nM. In addition, in the assay with human OX40 [4], the “EC50 [nM], CD4+ CD71 MFI, donor L556” value was determined as 0.032 nM; the “EC50 [nM], CD4+ CD71 MFI, donor Leuko 9” value was determined as 0.069 nM; the “EC50 [nM], CD4+ CD71 MFI, donor Leuko 20” value came to 0.007 nM; the “EC50 [nM], CD4+ CD71 MFI, donor Leuko 22” value was found to be 0.022 nM. In the assay with human OX40 [4], the “EC50 [nM], CD4 Proliferation, donor L556” value came out at 0.024 nM; the “EC50 [nM], CD4 Proliferation, donor Leuko 9” value is 0.004 nM; the “EC50 [nM], CD4 Proliferation, donor Leuko 20” value is 0.008 nM; the “EC50 [nM], CD4 Proliferation, donor Leuko 22” value amounted to 0.016 nM. Also, in the assay with human OX40 [4], the “EC50 [nM], IFNγ, donor L556” value is 0.077 nM; the “EC50 [nM], IFNγ, donor Leuko 9” value was determined as 0.094 nM; the “EC50 [nM], IFNγ, donor Leuko 20” value is 0.019 nM; the “EC50 [nM], IFNγ, donor Leuko 22” value was 0.032 nM.

B3: 1D10v6-Fc (bivalent) (Fc fusion)
chain: EVQLLESGGGEVQPGGSLRLSCAASGFTFSDAFMYWVRQAPGKEREWVSSISNRGLKTAYAESVKGRFTISRDNAKNTLYLQMSSLRAEDTAVYYCSRDVDADFRGQGTLVTVKPGGGG[human IgG1 Fc cut from this listing]
notes: VHH-Fc polypeptide; also called bivalent 1D10v6-Fc
As to B3, the entries for the “EC50 (read off the curve)” value with cynomolgus monkey OX40 [5] and with human OX40 [8] were around 700 pM and around 800 pM, respectively. Further, the Kd with human OX40 [6] was found to be 810 pM; in the assay with cynomolgus monkey OX40 [7], 660 pM.

B4: 1D10v1-Fc (bivalent) (Fc fusion)
chain: B3 chain with E44G, R45L, A102G
notes: VHH-Fc polypeptide; also called bivalent sdAb 1D10v1
On to B4, for which the half-maximal effective concentration (EC50 (read off the curve)) with cynomolgus monkey OX40 [5] and in the assay with human OX40 [8] was around 800 pM in each case. The Kd stood at 860 pM with human OX40 [6] and 790 pM with cynomolgus monkey OX40 [7].
